The assay has as its system OVCAR8. The assay is described as follows: cell count relative to DMSO vehicle (fold change); OVCAR8 is a high-grade serous ovarian cancer line and CX-5461 an RNA polymerase I inhibitor; higher = more surviving senescent cells (less killing). The note with it: senescence inducer: CX-5461 3 µM 48 h, then 6 d recovery (CX senescent), exposure time 24 h.

SMILES strings stand for the structures. Counter-ions that a name gives are not always drawn. ± gives the standard deviation of the averaged measurements. Some of the results follow.

As to `O=Nc1c(-c2c(O)[nH]c3cc(Br)ccc23)[nH]c2ccccc12` [GSK 3 Inhibitor IX], the cell count (compound dose 1 µM) stood at 0.893 ± 0.14 and the cell count (compound dose 5 µM) worked out at 0.456 ± 0.036.

As to `CO[C@@H]1[C@@H](OC(N)=O)[C@@H](O)[C@H](Oc2ccc3c(O)c(NC(=O)c4ccc(O)c(CC=C(C)C)c4)c(=O)oc3c2C)OC1(C)C` [Novobiocin (Sodium)], the cell count is, setting by setting: (compound dose 1 µM) 1.24 ± 0.45; (compound dose 5 µM) 1.16 ± 0.18.

Turning to `Clc1ccc(-c2csc(NN=C3CCCC3)n2)cc1`, the cell count came to 1.13 ± 0.18 (compound dose 1 µM) and 1.27 ± 0.19 (compound dose 5 µM).

For `CN(NC(=O)CC(=O)NN(C)C(=S)c1ccccc1)C(=S)c1ccccc1` [Elesclomol], the cell count runs as follows: (compound dose 1 µM) 0.8845 ± 0.0078; (compound dose 5 µM) 0.905 ± 0.089.

With `COc1ccc(C[C@@H]2c3cc(Oc4cc(C[C@@H]5c6cc(O)c(OC)cc6CCN5C)ccc4O)c(OC)cc3CCN2C)cc1` [Isoliensinine], the cell count was 1.12 ± 0.21 (compound dose 1 µM) and 1.11 ± 0.37 (compound dose 5 µM).

Take `OCCN1CCN(CCCN2c3ccccc3Sc3ccc(Cl)cc32)CC1`: the cell count (compound dose 1 µM) came to 1.07 ± 0.14 and the cell count (compound dose 5 µM) was 1.04 ± 0.049.

`O=C(c1ccc(C(=O)N2CCC(N3CCCC3)CC2)c(Nc2ccccc2)c1)N1CCC(N2CCCC2)CC1` showed a cell count (compound dose 1 µM) of 1.22 ± 0.055 and a cell count (compound dose 5 µM) of 1.06 ± 0.055.

Take `O=c1c(-c2ccc(O)cc2)coc2cc(O[C@@H]3O[C@H](CO)[C@@H](O)[C@H](O)[C@H]3O)cc(O)c12` [Genistin]: the cell count reads like this: (compound dose 1 µM) 1.15 ± 0.14; (compound dose 5 µM) 1.1 ± 0.049.

As to `CCC[C@H](N[C@@H](C)C(=O)N1[C@H](C(=O)O)C[C@@H]2CCCC[C@@H]21)C(=O)OCC` [Perindopril (erbumine)], the cell count came to 1.2 ± 0.31 (compound dose 1 µM) and 1.15 ± 0.12 (compound dose 5 µM).

Take `O=c1c2ccccc2nc(/C=C/c2cccnc2)n1Cc1ccccc1` [RAD51 Inhibitor B02]: the cell count by setting is: (compound dose 1 µM) 1.2 ± 0.16; (compound dose 5 µM) 0.977 ± 0.06.

`COC(=O)C1=CO[C@@H](O[C@@H]2O[C@H](CO)[C@@H](O)[C@H](O)[C@H]2O)[C@@H]2[C@@H](C)[C@@H](O)C[C@H]12` [Loganin]: the cell count was determined as 1.09 ± 0.22 (compound dose 1 µM) and 1.05 ± 0.12 (compound dose 5 µM).

Consider `COC1=CC(c2cc3ccccc3[nH]2)=N/C1=C\c1[nH]c(C)cc1C` [Obatoclax (Mesylate)], for which the cell count is 1.19 ± 0.019 (compound dose 1 µM) and 0.872 ± 0.093 (compound dose 5 µM).

On to `C[C@@H]1C[C@H](N)C[C@H](c2ccncc2NC(=O)c2ccc(F)c(-c3c(F)cccc3F)n2)C1` [PIM-447 (dihydrochloride)], for which the cell count came out at 1.1 ± 0.23 (compound dose 1 µM) and 1.11 ± 0.19 (compound dose 5 µM).

Regarding `COCC[n+]1c2c(n(Cc3cnccn3)c1C)C(=O)c1ccccc1C2=O` [Sepantronium (bromide)], the cell count (compound dose 1 µM) came out at 0.209 ± 0.096 and the cell count (compound dose 5 µM) is 0.122 ± 0.045.

For `O=c1c(O[C@@H]2O[C@H](CO)[C@@H](O)[C@H](O)[C@H]2O)c(-c2ccc(O)cc2)oc2cc(O)cc(O)c12` [Astragalin], the cell count stood at 1.093 ± 0.0035 (compound dose 1 µM) and 1.01 ± 0.088 (compound dose 5 µM).

Take `Cn1cc(C2=C(c3coc4ccc(F)cc34)C(=O)NC2=O)c2cc3c(cc21)OCO3`: the cell count was 1.14 ± 0.29 (compound dose 1 µM) and 1.08 ± 0.077 (compound dose 5 µM).

Take `CO[C@]1(CC[C@@H](C)CO[C@@H]2O[C@H](CO)[C@@H](O)[C@H](O)[C@H]2O)O[C@H]2C[C@H]3[C@@H]4CC=C5C[C@@H](O[C@@H]6O[C@H](CO)[C@@H](O[C@@H]7O[C@@H](C)[C@H](O)[C@@H](O)[C@H]7O)[C@H](O)[C@H]6O[C@@H]6O[C@@H](C)[C@H](O)[C@@H](O)[C@H]6O)CC[C@]5(C)[C@H]4CC[C@]3(C)[C@H]2[C@@H]1C` [Methyl protodioscin]: the cell count was 1.22 ± 0.16 (compound dose 1 µM) and 0.495 ± 0.21 (compound dose 5 µM).

Consider `COC(=O)C1=CC[C@@]23CC[C@@H]([C@@](C)(/C=C/C=C(\C)C(=O)O)OC2=O)[C@@]3(OC(C)=O)CC1` [Pseudolaric Acid B], for which the cell count was found to be 1.18 ± 0.18 (compound dose 1 µM) and 1.17 ± 0.13 (compound dose 5 µM).

Regarding `CN1C(=O)C(C)(C)Oc2c(-c3cn(C)c(=O)c4[nH]ccc34)cc(S(C)(=O)=O)cc21`, the cell count by setting is: (compound dose 1 µM) 1.17 ± 0.12; (compound dose 5 µM) 0.956 ± 0.038.

On to `CN1C(=O)/C(=C2/C(=O)Nc3ccccc32)c2ccccc21` [Meisoindigo], for which the cell count was found to be 0.994 ± 0.19 (compound dose 1 µM) and 1.01 ± 0.23 (compound dose 5 µM).

The molecule `CCOC(=O)Nc1cc(-c2ccc(C)c(NS(C)(=O)=O)c2)nn2c(C)nnc12` [Bromosporine] registered a cell count (compound dose 1 µM) of 1.16 ± 0.035 and a cell count (compound dose 5 µM) of 1.01 ± 0.067.

As for `CCCCCC1CC1CC1CC1CCCCCCCC(=O)O` (centres undefined), the cell count runs as follows: (compound dose 1 µM) 1.06 ± 0.24; (compound dose 5 µM) 1.03 ± 0.087.

Turning to `C[C@@H]1CCN(C(=O)CC#N)C[C@@H]1N(C)c1ncnc2[nH]ccc12`, the cell count worked out at 1.07 ± 0.061 (compound dose 1 µM) and 0.904 ± 0.12 (compound dose 5 µM).

Turning to `C[C@@H]1CCN(C(=O)CC#N)C[C@@H]1N(C)c1ncnc2[nH]ccc12` [Tofacitinib], the cell count stood at 1 ± 0.098 (compound dose 1 µM) and 0.891 ± 0.12 (compound dose 5 µM).

In the case of `O=C(/C=C/c1ccc(O)c(O)c1)OCCc1ccccc1`, the cell count reads like this: (compound dose 1 µM) 1.19 ± 0.17; (compound dose 5 µM) 1.26 ± 0.069.

As to `CC[C@H](C)C(=O)O[C@H]1CCC=C2C=C[C@H](C)[C@H](CC[C@@H]3C[C@@H](O)CC(=O)O3)[C@H]21` [Mevastatin], the cell count worked out at 0.958 ± 0.23 (compound dose 1 µM) and 0.898 ± 0.2 (compound dose 5 µM).

Consider `CC(=O)[C@]1(O)Cc2c(O)c3c(c(O)c2[C@@H](O[C@H]2C[C@H](N)[C@H](O)[C@H](C)O2)C1)C(=O)c1ccccc1C3=O` [Idarubicin (hydrochloride)], for which the cell count came to 1.05 ± 0.044 (compound dose 1 µM) and 0.856 ± 0.071 (compound dose 5 µM).

Take `CN(C)c1ncnc2c1ncn2[C@@H]1O[C@H](CO)[C@@H](N)[C@H]1O` [Puromycin aminonucleoside]: the cell count was 0.935 ± 0.095 (compound dose 1 µM) and 0.901 ± 0.025 (compound dose 5 µM).

Consider `CCCOc1ccn2c(C(C)=O)cc(-c3ccccc3S(C)(=O)=O)c2c1`, for which the cell count by setting is: (compound dose 1 µM) 1.28 ± 0.098; (compound dose 5 µM) 1.07 ± 0.13.

`Cc1nc(=O)c2cc(CN(C)c3ccc(C(=O)N[C@@H](CCC(=O)O)C(=O)O)s3)ccc2[nH]1` [Raltitrexed]: the cell count stood at 1.06 ± 0.049 (compound dose 1 µM) and 1.12 ± 0.24 (compound dose 5 µM).

For the molecule `Cc1cc(O)c(-c2ccc([C@@H](C)CN)cc2)c2c1[nH]c(=O)c1sccc12`, the cell count is, setting by setting: (compound dose 1 µM) 0.902 ± 0.13; (compound dose 5 µM) 0.914 ± 0.14.

On to `OC[C@H]1O[C@@H](Oc2cc(O)cc(/C=C/c3ccc(O)cc3)c2)[C@H](O)[C@@H](O)[C@@H]1O` [Polydatin], for which the cell count (compound dose 1 µM) was 1.04 ± 0.21 and the cell count (compound dose 5 µM) was found to be 1.06 ± 0.064.

(Values after the supplement of paper PMC12462457.)
